In publication PMC4336329 (PLoS ONE, 2015):
About 14,000 (4.5%) of roughly 310,000 compounds showed an effect of 50% or more. Effects have a minus sign here. This is one part of the list.

molecular target: human ether-à-go-go-related gene (hERG) potassium channel (human, UniProt Q12809); experiment: primary screen, population patch clamp on CHO cells stably expressing hERG
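Note: peak tail current of the secondary pulse compared with the same well before compound.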

human ether-à-go-go-related gene (hERG) potassium channel, sequence (Q12809 whole entry, looked up): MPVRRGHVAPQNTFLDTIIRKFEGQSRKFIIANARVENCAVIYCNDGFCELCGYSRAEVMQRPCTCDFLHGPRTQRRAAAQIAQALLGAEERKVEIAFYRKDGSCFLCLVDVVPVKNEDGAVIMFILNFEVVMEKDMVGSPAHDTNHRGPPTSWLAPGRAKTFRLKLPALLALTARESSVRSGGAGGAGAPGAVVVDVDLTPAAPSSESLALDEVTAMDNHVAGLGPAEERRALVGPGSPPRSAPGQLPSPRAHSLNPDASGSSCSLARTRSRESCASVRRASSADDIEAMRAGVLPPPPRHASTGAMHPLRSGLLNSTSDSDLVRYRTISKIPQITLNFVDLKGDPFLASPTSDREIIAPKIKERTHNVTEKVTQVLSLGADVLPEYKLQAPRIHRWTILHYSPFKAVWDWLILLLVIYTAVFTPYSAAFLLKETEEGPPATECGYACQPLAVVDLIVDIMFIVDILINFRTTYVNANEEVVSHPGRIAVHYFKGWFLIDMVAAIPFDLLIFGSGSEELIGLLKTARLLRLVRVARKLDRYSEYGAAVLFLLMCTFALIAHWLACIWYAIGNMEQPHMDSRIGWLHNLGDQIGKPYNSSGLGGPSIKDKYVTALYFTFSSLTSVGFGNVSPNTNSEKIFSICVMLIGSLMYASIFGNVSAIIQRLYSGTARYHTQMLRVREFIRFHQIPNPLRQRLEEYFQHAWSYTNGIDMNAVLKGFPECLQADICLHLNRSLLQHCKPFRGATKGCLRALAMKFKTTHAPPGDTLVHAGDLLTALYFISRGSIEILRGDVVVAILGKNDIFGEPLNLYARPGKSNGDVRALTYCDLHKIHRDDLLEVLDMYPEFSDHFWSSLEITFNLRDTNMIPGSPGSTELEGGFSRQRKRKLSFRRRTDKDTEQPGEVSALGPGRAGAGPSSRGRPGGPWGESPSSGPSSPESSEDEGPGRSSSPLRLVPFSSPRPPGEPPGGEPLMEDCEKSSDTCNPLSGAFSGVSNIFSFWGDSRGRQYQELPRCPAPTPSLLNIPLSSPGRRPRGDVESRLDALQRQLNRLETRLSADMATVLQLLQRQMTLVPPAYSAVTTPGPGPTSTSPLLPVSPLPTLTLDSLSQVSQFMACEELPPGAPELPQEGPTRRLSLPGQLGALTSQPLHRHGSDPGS

Row | Structure (SMILES) | hERG current change (%, negative = inhibition) at 10uM [%]
1 | O=C1CC(Sc2ncccc2C(=O)O)C(=O)N1 (stereo not drawn) | 6.62
2 | O=C(CCCCCN1C(=O)c2cccc3cccc(c23)C1=O)NCc1ccco1 | 13.2
3 | CC(C(=O)Nc1ccc(C#N)cc1)N(C)CC(=O)Nc1ccccc1Br (stereo not drawn) | -17
4 | Cn1c(=O)c2c(nc(OCc3cccnc3)n2Cc2ccccc2)n(C)c1=O | -32.8
5 | C=CCn1c(SCc2ccccc2Cl)nnc1-c1sc2nc(C)cc(C)c2c1N | 13.2
6 | CCO[C@H]1OC(C(N)=O)=C[C@@H](C2CCCCC2)[C@@H]1CCCO | 9.79
7 | C[N+]1(C)CCOC(O)(c2ccc(-c3ccc(C4(O)C[N+](C)(C)CCO4)cc3)cc2)C1.[Br-] (stereo not drawn) | 12
8 | N#CCCN(Cc1ccccc1)C(=O)Nc1ccc2c(c1)CCO2 | 6.37
9 | Cc1ccc(C2c3c(-c4ccccc4O)n[nH]c3C(=O)N2Cc2ccncc2)cc1 (stereo not drawn) | 10.8
10 | COc1ccc(N(CC(=O)O)S(=O)(=O)c2ccc(C)cc2)cc1Cl | 16.3
11 | Cc1ccccc1C(=O)OCc1nnc(-c2ccc(Cl)cc2)o1 | -5.09
12 | CCN1C(=O)c2cccc3c(S(=O)(=O)NCC4CCCO4)ccc1c23 (stereo not drawn) | 1.95
13 | CCCN1CCC(=NNc2ccc(S(=O)(=O)N(CC)CC)cc2[N+](=O)[O-])CC1 | -27.5
14 | O=C(NCCC1=CCCCC1)c1ccc(Cl)c(S(=O)(=O)N2CCOCC2)c1 | -39.6
15 | CCc1cc(=O)[nH]c(-n2[nH]c(-c3ccccc3)cc2=O)n1 | 22.6
16 | CC(=O)c1cc(C#N)c(Oc2ccccc2)nc1C | 9.67
17 | CC(SC(=S)N1CCOCC1)C(=O)O (stereo not drawn) | 8.03
18 | CC(C)Cn1c(-c2ccccc2)nc(=S)c2c1CCCC2 | 20.9
19 | CC(CC(=O)N1CCN(C(=O)c2ccccc2)CC1)c1ccccc1 (stereo not drawn) | 13.7

Row | Structure (SMILES) | hERG current change (%, negative = inhibition) at 10uM [%]
20 | CCOC(=O)C(C)n1cnc2c(cnn2-c2ccc(Cl)cc2)c1=O (stereo not drawn) | 5.8
21 | Cc1ccc(OCC(=O)OCc2c(C)noc2C)cc1C | -15
22 | Cn1c(=O)c2cn(Cc3ccc(Cl)cc3)cc2n(C)c1=O | -1.75
23 | CN(C)CC(C)(C)CNS(=O)(=O)c1ccc(Cl)s1 | 10.2
24 | Cc1cc(-c2csc(N)n2)c(C)n1Cc1ccccc1 | -2.3
25 | CCN(CC)C(=O)CC(c1cc(OC)c(OC)c(OC)c1)c1c(OC)cc(OC)c2c(-c3ccccc3)cc(=O)oc12 (stereo not drawn) | 4.18
26 | CCCC(C)CO (stereo not drawn) | 18.3
27 | CC1Cc2cc(S(=O)(=O)NCc3ccccc3)ccc2N1C(=O)C1CC1 (stereo not drawn) | 0.505
28 | COc1cc(C(c2c(C)n(C)n(-c3ccccc3)c2=O)c2c(C)n(C)n(-c3ccccc3)c2=O)cc(Br)c1O | 13.7
29 | COc1ccc(/C=C/C(=O)NC(=S)NNC(=O)c2ccco2)cc1OC | 10.1
30 | CCc1cccc(Nc2cc(C)nc3ncnn23)c1 | 1.12
31 | CCOC(=O)C1C2C=CC3(CN(Cc4ccccc4)C(=O)C13)O2 (stereo not drawn) | 13.7
32 | Cc1nc(SCC(=O)NCc2ccco2)c2c3c(sc2n1)CCCC3 | -3.83
33 | Cn1nnc(NC(=O)c2ccc(C(C)(C)C)cc2)n1 | 3.02
34 | c1ccc(CSc2nnc3ccc(-c4ccncc4)nn23)cc1 | -58.3
35 | Cc1nc(C)n(C)c(=O)c1-c1ccccc1 | -10.7
36 | O=C(O)C1C2CCC(O2)C1C(=O)Nc1ccc(O)cc1 (stereo not drawn) | 13.8
37 | CC(C)(CO)CNC(=O)c1ccc2nc(Cc3cccc(Cl)c3)oc2c1 | -4.83
38 | CCOc1ccc(C2SCC(=O)Nc3c2c(=O)[nH]n3C2CCCCCC2)cc1 (stereo not drawn) | 7.29

Row | Structure (SMILES) | hERG current change (%, negative = inhibition) at 10uM [%]
39 | Cc1ccc(NC(=S)NC2CCCC2)cc1C | 14.8
40 | COc1cccc(NC(=O)COC(=O)c2c(NC(C)=O)sc(C)c2C)c1 | 12
41 | Cc1ccc(CNS(=O)(=O)c2cc(F)ccc2CN2C(=O)c3cccnc3C2=O)o1 | -9.97
42 | CCOC(=O)N/N=C\c1ccc(OC/C=C/c2ccccc2)c(OC)c1 | 1.18
43 | O=C(COc1nsnc1N1CCOCC1)Nc1ccc(Cl)cc1 | -6.56
44 | CN1C(=S)SC(/[N+]([O-])=C/c2ccc(Cl)cc2)C1(C)C (stereo not drawn) | 4.01
45 | Fc1cccc(/C=N/Nc2nc3ccccc3[nH]2)c1 | 18.1
46 | Nc1ncnc2c1ccn2[C@@H]1O[C@H](CO)[C@@H](O)[C@H]1O | -1.04
47 | Cc1ccccc1NC(=O)COC(=O)c1ccccc1SCC(=O)N1CCCC1 | -0.0223
48 | Cn1c(=O)c2c(nc(N/N=C/c3cccs3)n2Cc2ccccc2)n(C)c1=O | 9.85
49 | Cc1nnc(NC(=O)c2ccc(S(=O)(=O)N3CCc4ccccc4C3)cc2)o1 | 8.81
50 | O=C(N/N=C/c1ccc(OCc2ccccc2)cc1)c1cc[n+](Cc2ccccc2)cc1.[Cl-] | -33.1
51 | CCOC(=O)c1ccc(NC(=O)N2CCCCC2)cc1 | 3.33
52 | CC(C)C(NC(=O)CN1C(=O)c2ccccc2S1(=O)=O)C(C)C | -1.61
53 | O=C(Oc1ccc(OC(=O)c2ccco2)c(S(=O)(=O)c2ccc(Cl)cc2)c1)c1ccco1 | 13.1
54 | Cc1cc2nc3n(c2cc1C)CC1CC(C(=O)NCc2cccc(Br)c2)N(C)C31 (stereo not drawn) | -72.5
55 | Cc1ccc(-c2nc3ccccc3c(=O)n2Cc2ccccc2)cc1 | -16.9
56 | CCCCC(=O)N/N=C/c1cc([N+](=O)[O-])ccc1N1CCOCC1 | -37.1
57 | COc1ccc(CN(Cc2ccccn2)C(=O)CN2C(=O)COc3ccccc32)cc1 | -14.7
